Data taken from a collection of fitness landscapes (doi:10.1016/j.celrep.2020.107928).
Whole data set: some 81,000 sequences, median “one-hybrid fitness for binding NBS DNA” near -0.1, cut for the highest 2% near 0.36. This is one part of the list.

B1: Caulobacter ParB omega fusion; a variant is named by its letters at X, in order, B8GW30 (parent)
chain: MESVVVGEPGMSEGRRGLGRGLSALLGEVDAAPAQAPGEQLGGSREAPIEILQRNPDQPRRTFREEDLEDLSNSIREKGVLQPILVRPSPDTAGEYQIVAGERAWRAAQRAGLKTVPIMVRELDDLAVLEIGIIENVQRADLNVLEEALSYKVLMEKFERTQENIAQTIGKSXSHVANXMRLLXLPDEVQSYLVSGELTAXHARAIAAAADPVALAKQIIEGGLSVRETEALARKAPNLSAGKSKGGRPPRVKDTDTQALESDLSSVLGLDVSIDHRGSTGTLTITYATLEQLDDLCNRLTRGI

Variants of: B1
Test: one-hybrid fitness for binding NBS DNA (the Noc-binding site; scaled: cognate 1, non-cognate 0); higher = stronger binding
Conditions: with NBS DNA site
Summary of the method: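 Pre- and post-selection plasmids were Illumina-sequenced, three replicate libraries were pooled, and any variant with under 10 reads was removed. The libraries were Caulobacter ParB with four specificity codons randomised, selected in E. coli USO through a HIS3 reporter whose site is 19 bp from the promoter. Cells grew 48 hours at 37°C on M9 without histidine, with 0.1 mM IPTG and 5 mM 3-AT. Fitness is the log change in variant-to-wild-type read ratio, rescaled against cognate and non-cognate.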

Variant	one-hybrid fitness for binding NBS DNA
IWQG	≤ 0.2
YPHR	≤ 0.2
RWHM	≤ 0.2
TWVL	≤ 0.2
AMII	≤ 0.2
NCTG	≤ 0.2
SNKW	≤ 0.2
FHLD	≤ 0.2
QVLP	≤ 0.2
RPFT	≤ 0.2
HRAM	≤ 0.2
RLVM	≤ 0.2
QLNK	≤ 0.2
FGCL	≤ 0.2
PGRC	≤ 0.2
PDWT	≤ 0.2
TMAR	≤ 0.2
YHET	≤ 0.2
ANHL	≤ 0.2
RWNC	≤ 0.2
PHNQ	≤ 0.2
PLYF	≤ 0.2
PIVS	≤ 0.2
YDPR	≤ 0.2
NWQV	≤ 0.2

Variant	one-hybrid fitness for binding NBS DNA
TYLF	≤ 0.2
CAFS	≤ 0.2
TSIK	≤ 0.2
YQCR	≤ 0.2
VYLA	≤ 0.2
TFML	≤ 0.2
FVIL	≤ 0.2
NNAI	≤ 0.2
PGLA	≤ 0.2
DRYC	≤ 0.2
YIDS	≤ 0.2
PWHC	≤ 0.2
DVMR	≤ 0.2
LKKS	≤ 0.2
LHIC	≤ 0.2
NSGA	≤ 0.2
HAIG	≤ 0.2
PIRL	≤ 0.2
LMNE	≤ 0.2
CFCT	≤ 0.2
EYEW	≤ 0.2
VIKT	≤ 0.2
ATGK	≤ 0.2
LCCL	≤ 0.2
TNPR	≤ 0.2

Variant	one-hybrid fitness for binding NBS DNA
RTCK	≤ 0.2
QIWS	0.247
RQQH	≤ 0.2
GWQT	≤ 0.2
AALA	≤ 0.2
CWTE	≤ 0.2
GALG	≤ 0.2
RAEM	≤ 0.2
QESG	≤ 0.2
PAED	≤ 0.2
HWQT	≤ 0.2
PWDS	≤ 0.2
LDHT	≤ 0.2
FALY	≤ 0.2
NIIG	≤ 0.2
NWES	≤ 0.2
PLGF	≤ 0.2
SEGW	≤ 0.2
HDTG	≤ 0.2
DIYS	≤ 0.2
KSCK	≤ 0.2
YPYS	≤ 0.2
EMRQ	≤ 0.2
VWKD	≤ 0.2
NFNV	≤ 0.2

Variant	one-hybrid fitness for binding NBS DNA
RYRI	≤ 0.2
NYNI	≤ 0.2
FKHI	≤ 0.2
PTLR	≤ 0.2
RSGR	0.459
STWG	≤ 0.2
IKTT	≤ 0.2
MWSC	≤ 0.2
FNLI	≤ 0.2
HRLC	≤ 0.2
YDKC	≤ 0.2
ICCL	≤ 0.2
GWWL	≤ 0.2
CEFG	≤ 0.2
LFLY	≤ 0.2
EPRN	≤ 0.2
RMKC	0.4
QDAT	≤ 0.2
NHVC	≤ 0.2
GCLG	≤ 0.2
HLNV	≤ 0.2
IHHG	≤ 0.2
RALK	≤ 0.2
QPEC	≤ 0.2
HLDM	≤ 0.2

Variant	one-hybrid fitness for binding NBS DNA
FRGL	≤ 0.2
CYGT	≤ 0.2
RQDM	≤ 0.2
PTKC	≤ 0.2
AFDT	≤ 0.2
RWAT	≤ 0.2
DWDG	≤ 0.2
DYKY	≤ 0.2
ARNG	≤ 0.2
PPCI	≤ 0.2
SCMR	≤ 0.2
NETT	≤ 0.2
ALTP	≤ 0.2
FITS	≤ 0.2
TECR	≤ 0.2
ALTK	≤ 0.2
RLMF	≤ 0.2
NCMT	≤ 0.2
GDSS	≤ 0.2
HPPF	≤ 0.2
YEWS	≤ 0.2
MGTI	≤ 0.2
LPIL	≤ 0.2
VAWR	≤ 0.2
SWIV	≤ 0.2

Variant	one-hybrid fitness for binding NBS DNA
TMAP	≤ 0.2
LKSC	≤ 0.2
TRFM	≤ 0.2
GGGG	≤ 0.2
ATDV	≤ 0.2
ATSE	≤ 0.2
DCCS	≤ 0.2
FADS	≤ 0.2
TKRR	0.236
GLYV	≤ 0.2
MEKT	≤ 0.2
YLTV	≤ 0.2
FHRM	≤ 0.2
RLKE	≤ 0.2
DRFA	≤ 0.2
WQAH	≤ 0.2
PLTA	≤ 0.2
QFIW	≤ 0.2
APRM	≤ 0.2
HYTS	≤ 0.2
KIET	≤ 0.2
YWTY	≤ 0.2
DLSY	≤ 0.2
ARLD	≤ 0.2
VEPE	≤ 0.2

Variant	one-hybrid fitness for binding NBS DNA
LCTM	≤ 0.2
MESE	≤ 0.2
SHKN	≤ 0.2
VTND	≤ 0.2
CSAT	≤ 0.2
QYMS	0.314
DTCT	≤ 0.2
PIWS	≤ 0.2
YTQC	≤ 0.2
CCTA	≤ 0.2
QLKM	0.318
HWWG	≤ 0.2
AFEL	≤ 0.2
PLWT	≤ 0.2
PCND	≤ 0.2
MRRT	0.275
TKKI	≤ 0.2
ASAP	≤ 0.2
VWRI	≤ 0.2
VAFV	≤ 0.2
TWPP	≤ 0.2
PGMT	≤ 0.2
GISM	≤ 0.2
WSWC	≤ 0.2
RYVR	0.269

Variant	one-hybrid fitness for binding NBS DNA
QCKK	0.485
HPAG	≤ 0.2
VCCG	≤ 0.2
PTGV	≤ 0.2
HSHL	≤ 0.2
CVRY	≤ 0.2
RWSN	≤ 0.2
PIGL	≤ 0.2
ECLT	≤ 0.2
LTIY	≤ 0.2
HFLS	≤ 0.2
SCTG	≤ 0.2
EPSP	≤ 0.2
NRKK	≤ 0.2
KMRT	0.274
NQLC	≤ 0.2
PYVA	≤ 0.2
VCEG	≤ 0.2
RSRQ	≤ 0.2
IDAS	≤ 0.2
